Measured values taken from the supplement of paper PMC10126150.
Values marked as one replicate rest on one cluster of the flow cell; about a third of the high ones do not repeat.

Test system: ATP
Assay: switch fluorescence ratio, 500 uM ATP over buffer (Cy3 cluster intensity, sum of 5 cycles each) (fold (ratio)); higher = stronger signal-on switching upon ATP binding; sequences stand for … in TCGTCGGCAGCGTCAGATGTGTATAAGAGACAGTTTTTTTTTTTTTTTTTTTTTTTTT…TC
Details: aptamer strand: ATP DNA aptamer (quencher-CACCTGGGGGAGTATTGCGGAGGAAGG + anchor), 100 nM annealed; ATP concentration: 500 uM; one replicate
Summary of the method: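 Clusters with intensities outside 100-1000 RFU were excluded. The remaining Cy3-labelled switching-strand clusters on a modified Illumina MiSeq flow-cell had been annealed to 100 nM quencher-labelled ATP aptamer and imaged in selection buffer, then after 15 min with 500 uM ATP at 22 °C, for five cycles separated by NaOH stripping and re-annealing. The fluorescence ratio, averaged per switch-domain sequence, is each cluster's summed target-cycle Cy3 intensity over its summed buffer-cycle Cy3 intensity.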
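Note: ATP exposure 15 min at 22 °C before imaging.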

Sequence	switch fluorescence ratio
CAAGAGCCAC	1.04
CTGTAGTTAC	3.85
TTAAATTACA	0.969
GTCATTGGGG	0.983
ATCACAGTCT	1.07
ACAGGAGGTA	0.979
ATCCGGAGAG	1.13
TCCATCGTTT	1.1
CACGTAAACC	1.24
AGATCTGTTT	0.976
TTGTCGGAG	0.918
CCTGCTAGAG	1.39
GATACTTGCG	0.973
GAAGAAACGT	1.13
CACGTGGCTT	1.01
GGTTACTATA	1.01
GAGTGTAAGG	0.985
CTATATGTTT	1.02
CGGTTAGCAG	0.97
ACATCCGGGG	1.08
CATCCTCCGA	3.4
TTAAGCAGTG	1.04
GGGCGAACTC	1.03
GGTAGAGGCT	1.02
GCAAGTAAGC	1.09

Sequence	switch fluorescence ratio
AATTCCTGGC	0.974
TAGTGTCTC	1.03
TTAAATGCT	1.01
GGGGGGACAT	1.02
CACTGAGAAA	1
TGTATTATGA	1.05
ACGAACGTAC	1.66
AACTACAGCG	1.03
TTGTAGTTTA	1.06
GCCATGGTTT	1.05
GATAGGATCA	1
GCAAATCCGA	1.01
GGCATAATGT	0.951
CTAACCTAAT	1.07
AGGCTTCGGG	0.994
GGTCAGTCGC	0.991
CGGAGTGATT	1.38
AATGCACGT	1.1
GGTGTCTGAG	0.983
CATGCGGGGT	1.02
CGAGAGATAA	1.03
TTCCGAGTTG	1.07
ACCACGGTTA	1.08
CTAGATTTTT	0.97
GCAGTCAGTG	1.01

Sequence	switch fluorescence ratio
CGGCCGTGGT	0.998
TGAGGAAGTT	1.02
TGACTGTTGC	0.983
GCACCTTGAT	0.983
GTTTCAGTGG	0.968
TACGCGCCCG	1.02
ATAGAGGCCA	1.03
GGGCACTTCA	1.02
CTAATCTGTT	0.976
ATTTCAGCAT	1.11
ACGTCGAGCC	1.07
TTGTGTTTCC	0.987
ATCTTGAATT	0.991
AGGGCAGAA	1.04
AGTGCACAGC	0.999
GTATTTTGC	1.05
CTTAATGTCC	1.01
TTATGCCATC	1.07
GCGTCAATGT	1.13
ATGCGATTGT	0.949
GGGTCATTGG	1.01
CAACGCGACA	1.65
AGCGCACACT	1.25
TCCTAGGCTT	1.01
TCTAAGCACG	1.16

Sequence	switch fluorescence ratio
CCATGGAAAG	1.01
TTCAACCCCA	1.05
TCGTTAATT	0.952
GAAAACGATA	1.02
ACCAGTTCC	1.13
GCGATCGCGT	1.01
AGTATATTTG	1.04
TTATACGGGG	1.1
CTCTTTTGAA	0.914
GAGTAAGTAT	0.93
ATTAGGAGCT	0.994
AGATTAGTGT	0.951
GGTCTCTCCT	0.979
GGGGCCCTG	0.991
CAGCTCAATT	1.01
TCTTAGGGGG	1.02
GGGATTTTAT	0.933
ATACCTGCTG	1.01
TGCTTTGCC	1.07
TCAGTATGGT	0.975
TCGACAAACC	1.17
TAATCGTCTT	1.01
ATAGCTAGA	0.993
GACTACCTAA	1.1
ATCGGTGGAT	0.992
